Results: the supplement of paper PMC7125110
± gives the standard error. Variants at the background level are over-represented here.

B1: glmS ribozyme (parent)
chain: AUAAAAGCGCCAGAACUACAGAAAUGUAGUUGACGAGGAGGAGGUUUAUCGAAUUUUCGGCGGAUGCCUCCAAA

Columns and labels:
Conditions in all cases: with glucosamine-6-phosphate
glucosamine-6-phosphate [1] = variants of: B1; test: self-cleavage kobs at 40 uM GlcN6P; higher = faster cleavage; RNA array
Summary of the method: (§1)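 Ribozyme variants carrying barcodes were transcribed in situ on sequenced MiSeq chips by E. coli RNA polymerase and tracked at 37 °C with a hybridised Cy3 probe. They were exposed to 40 μM to 10 mM glucosamine-6-phosphate in HEPES/KCl/Mg(OAc)2 buffer. kobs came from exponential decay fits of normalised per-tile medians, and kcat and KM from weighted Michaelis–Menten fits.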

glucosamine-6-phosphate [2] = variants of: B1; test: self-cleavage kobs at 640 uM GlcN6P; higher = faster cleavage; RNA array
Summary of the method: as §1

glucosamine-6-phosphate [3] = variants of: B1; test: self-cleavage kobs at 160 uM GlcN6P; higher = faster cleavage; RNA array
Summary of the method: as §1

glucosamine-6-phosphate [4] = variants of: B1; test: self-cleavage kobs at 10000 uM GlcN6P; higher = faster cleavage; RNA array
Summary of the method: as §1

glucosamine-6-phosphate [5] = variants of: B1; test: self-cleavage kobs at 2500 uM GlcN6P; higher = faster cleavage; RNA array
Summary of the method: as §1

Variant	self-cleavage kobs at 40 uM GlcN6P (glucosamine-6-phosphate [1])	self-cleavage kobs at 640 uM GlcN6P (glucosamine-6-phosphate [2])	self-cleavage kobs at 160 uM GlcN6P (glucosamine-6-phosphate [3])	self-cleavage kobs at 10000 uM GlcN6P (glucosamine-6-phosphate [4])	self-cleavage kobs at 2500 uM GlcN6P (glucosamine-6-phosphate [5])
A36U U47A	< 1e-05 s⁻¹	< 1e-05 s⁻¹	< 1e-05 s⁻¹	< 1e-05 s⁻¹	
G37C A53C	< 1e-05 s⁻¹				
A33U G37A A52U	< 1e-05 s⁻¹			< 1e-05 s⁻¹	
G37U A39U	< 1e-05 s⁻¹	< 1e-05 s⁻¹			
G38U A48C C71G	< 1e-05 s⁻¹			< 1e-05 s⁻¹	
G37C G60A	< 1e-05 s⁻¹	< 1e-05 s⁻¹	< 1e-05 s⁻¹	< 1e-05 s⁻¹	< 1e-05 s⁻¹
A33C A52G	< 1e-05 s⁻¹		< 1e-05 s⁻¹	< 1e-05 s⁻¹	< 1e-05 s⁻¹
G35C G40C C58G C70U	< 1e-05 s⁻¹				
C34A G40C	< 1e-05 s⁻¹			< 1e-05 s⁻¹	
C34A G40U	< 1e-05 s⁻¹	< 1e-05 s⁻¹	< 1e-05 s⁻¹	< 1e-05 s⁻¹	< 1e-05 s⁻¹
A33U G37U C50G U69A	8.34e-05 ± 2.3e-05 s⁻¹			0.000105 ± 2.5e-05 s⁻¹	
G35C G43C C50U A53U U57A C68A	< 1e-05 s⁻¹			< 1e-05 s⁻¹	
A36G U57A	< 1e-05 s⁻¹	< 1e-05 s⁻¹	< 1e-05 s⁻¹	< 1e-05 s⁻¹	< 1e-05 s⁻¹
G35C U56A	< 1e-05 s⁻¹	< 1e-05 s⁻¹		< 1e-05 s⁻¹	
A36U G41U C70G	< 1e-05 s⁻¹				
A36C G59U C68G	< 1e-05 s⁻¹				
G37U G44C A52G	< 1e-05 s⁻¹				
G35C U46G A48G U65C C68A	< 1e-05 s⁻¹				
A36G C71U	< 1e-05 s⁻¹		< 1e-05 s⁻¹		
G37C C68A	< 1e-05 s⁻¹				
G37U G43A	< 1e-05 s⁻¹		< 1e-05 s⁻¹		
A33G C58A	< 1e-05 s⁻¹				
A33U A39G U65A	< 1e-05 s⁻¹				
C34G U65A	< 1e-05 s⁻¹		< 1e-05 s⁻¹	< 1e-05 s⁻¹	< 1e-05 s⁻¹
A36G A53G	< 1e-05 s⁻¹	< 1e-05 s⁻¹	< 1e-05 s⁻¹		
G38A A42U C70A	< 1e-05 s⁻¹				
C34A A36C G40A G43U G60U C70A	< 1e-05 s⁻¹			< 1e-05 s⁻¹	
A36U G51A	< 1e-05 s⁻¹		< 1e-05 s⁻¹		

Variant	self-cleavage kobs at 40 uM GlcN6P (glucosamine-6-phosphate [1])	self-cleavage kobs at 640 uM GlcN6P (glucosamine-6-phosphate [2])	self-cleavage kobs at 160 uM GlcN6P (glucosamine-6-phosphate [3])	self-cleavage kobs at 10000 uM GlcN6P (glucosamine-6-phosphate [4])	self-cleavage kobs at 2500 uM GlcN6P (glucosamine-6-phosphate [5])
G35U U54C U55A G59C	< 1e-05 s⁻¹			< 1e-05 s⁻¹	
G37U A39G C61A U69A	< 1e-05 s⁻¹			< 1e-05 s⁻¹	
G35C G44U	< 1e-05 s⁻¹	< 1e-05 s⁻¹	< 1e-05 s⁻¹	< 1e-05 s⁻¹	
A36U U69A	5.11e-05 ± 1.6e-05 s⁻¹				7.35e-05 ± 2.7e-05 s⁻¹
G37U G38A A42C	< 1e-05 s⁻¹	< 1e-05 s⁻¹		< 1e-05 s⁻¹	< 1e-05 s⁻¹
G32U G40C	< 1e-05 s⁻¹				
A33U G60A C71G	< 1e-05 s⁻¹				
G38A G44A	< 1e-05 s⁻¹	< 1e-05 s⁻¹	< 1e-05 s⁻¹	< 1e-05 s⁻¹	< 1e-05 s⁻¹
G38C G59C	< 1e-05 s⁻¹	< 1e-05 s⁻¹	< 1e-05 s⁻¹	< 1e-05 s⁻¹	< 1e-05 s⁻¹
A36G A48G C70U	< 1e-05 s⁻¹	< 1e-05 s⁻¹		< 1e-05 s⁻¹	
G35A G44U U49A	< 1e-05 s⁻¹				
G32C G59C	< 1e-05 s⁻¹			< 1e-05 s⁻¹	
G32U A39C U54A	< 1e-05 s⁻¹				
G37C A48G	< 1e-05 s⁻¹	< 1e-05 s⁻¹	< 1e-05 s⁻¹		
G37C A48C	< 1e-05 s⁻¹				
C34A A48C	< 1e-05 s⁻¹			< 1e-05 s⁻¹	< 1e-05 s⁻¹
G35C	< 1e-05 s⁻¹	< 1e-05 s⁻¹	< 1e-05 s⁻¹	< 1e-05 s⁻¹	< 1e-05 s⁻¹
G35A	< 1e-05 s⁻¹	< 1e-05 s⁻¹	< 1e-05 s⁻¹	< 1e-05 s⁻¹	< 1e-05 s⁻¹
G32A G35C C67G	< 1e-05 s⁻¹			< 1e-05 s⁻¹	
G38A G51U C68G	< 1e-05 s⁻¹				
A39C A42U C67G	< 1e-05 s⁻¹				< 1e-05 s⁻¹
G32C G38A	< 1e-05 s⁻¹			< 1e-05 s⁻¹	
G37U U65C	< 1e-05 s⁻¹			< 1e-05 s⁻¹	
G37U U65A	< 1e-05 s⁻¹	< 1e-05 s⁻¹			
G37U U65G	< 1e-05 s⁻¹				
C34G G43U C67U	< 1e-05 s⁻¹				
G38U C50A C67G	8.67e-05 ± 3.1e-05 s⁻¹				
